Among all 420,000 compounds or so, about 64,000 (15%) were called active. Inconclusive results, whose numbers are uncertain, are shown with a selection of clear calls. Calls come from the whole dose curve; as a rule, active = well fitted inhibition curve with a large enough effect; inconclusive = small, poorly fitted or top-dose-only effect; inactive = flat fitted curve, though single readings scatter. Potencies of inconclusive entries are left out as doubtful fits.
Assay: qHTS for Inhibitors of human tyrosyl-DNA phosphodiesterase 1 (TDP1): qHTS in cells in absence of CPT; note: nearly all actives have a fitted effect of over 55% in size
Conditions: DT40 Tdp1-/- hTDP1 cells, no CPT, ATP luminescence, 48 h; activity change, negative = growth inhibition: at 46.2 µM (top of the series) unless noted
Outline: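 No-CPT arm: Tdp1-/-;hTDP1 DT40 cells (400/well) plus compounds, incubated ≥48 hr at 37 °C. Readout CellTiter-Glo luminescence.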
% is set by controls: 0 for no effect and ±100 for the full control effect; potency is the fitted concentration of half-maximal effect; tags give direction and shape of the fitted curve.

SMILES	Potency	activity change, negative = growth inhibition
CCCCN(C(=O)c1ccccc1Cl)C(CC(C)C)c1nc2ccccc2[nH]1 (configuration not stated)	inconclusive [inhibitor, single point]	
CCCCC(=O)Nc1ccc(C(=O)NCC(=O)OC)cc1		inactive: -1.76%
COc1ccc2nc(NC(=O)c3nc(S(=O)(=O)Cc4ccccc4F)ncc3Cl)sc2c1	active: 1.46 µM	
CC(C)C(NS(C)(=O)=O)c1nnc2n1CCN(Cc1cccc3ncccc13)CC2 (configuration not stated)		inactive: -13%
CCOc1ccc2[nH]cc(C(=O)NCCc3ccccc3)c(=O)c2c1	inconclusive [inhibitor, single point]	
CCOc1c(Nc2ccccc2O)c(=O)c1=O		inactive: 6.69%
CC(OC(=O)c1cccn1C)C(=O)Nc1ccc2c(c1)OCO2 (configuration not stated)		inactive: -26.9%
CC1(C(=O)NCc2cccc(C(F)(F)F)c2)CCN1Cc1ccc(-c2ccccc2)o1 (configuration not stated)	inconclusive [inhibitor, single point]	
COc1ccc(OC2C(=O)N(c3cc(C)ccc3C)C2c2ccc(OC)c(OC)c2)cc1 (configuration not stated)	inconclusive [inhibitor, single point]	
OC(COc1cccc2ccccc12)CN1CCN(c2ccccn2)CC1 (configuration not stated)	inconclusive [inhibitor, single point]	
CSc1nn2cc(CCN3CCOCC3)c(-c3ccc(F)cc3)nc2c1C#N	inconclusive [inhibitor, single point]	
CCc1nc(SCc2ccc(OC)c(Br)c2)n[nH]1	inconclusive [inhibitor, single point]	
COc1ccc(N2CCN(CCNC(=O)Nc3ccc(C)c(Cl)c3)CC2)cc1	active: 16.4 µM	
COc1cc(OC)cc(C(=O)NCC(=O)OCc2csc(-c3ccccc3)n2)c1	active: 23.1 µM	
CC(C)(C)OC(=O)N1CCC(C(=O)Nc2ccc(C(=O)NCc3ccccc3)cc2)CC1	active: 14.6 µM	
NC(N)=NC(N)=Nc1ccc(SC(F)(F)F)cc1	active: 9.2 µM	
COc1ccc(/C=C2\COc3ccccc3C2=O)cc1OC	active: 20.6 µM	
c1ccc2c(c1)[nH]c1c(N3CCOCC3)ncnc12	active: 12.6 µM	
CC(=O)Nc1ccc(C=CC=Cc2cccc([N+](=O)[O-])c2)cc1	inconclusive [inhibitor, single point]	
O=C(Nc1ccc(Cl)cc1)C1C2CCC3C(CCC21)C3(Cl)Cl (configuration not stated)	inconclusive [inhibitor, partial curve]	
NC(=Nc1nc(-c2ccccn2)cc2ccccc12)c1ccccn1	active: 0.0184 µM	
NC(=O)CCS(=O)(=O)CCN1CCN(S(=O)(=O)c2ccc3c(c2)CCC3)CC1		inactive: 5.22%
